According to paper PMC3660575:
No constants are given. Whether binding was seen depends on the method and setting. Binding seen in cells or lysates may run through a third protein. Some binding calls cover weakened binding; strength is not graded here.

Biological target: APP695 (UniProt P05067)
Assay: co-IP; competition binding assay: purified Sort-T-myc/His (50 µl) or MS1 peptide (10 µM) pre-incubated with APP695 lysate 1 h at 4°C; read as loss of the sortilin-CFP construct from the anti-APP precipitate; only the binder purified

In the case of CGGRFLVHRYSVLQQ [MS1 peptide], the binding is reported as “binds”.
